We go through 48 molecules from PubChem BioAssay AID1963576 (National Center for Advancing Translational Sciences (NCATS), 2024).

The structures appear in SMILES notation. The campaign covered roughly 46,000 compounds. About 60 (0.1%) were called active. Another 3% or so got no clear call; they are omitted. Calls come from the whole dose curve; as a rule, active = well fitted inhibition curve with a large enough effect; inconclusive = small, poorly fitted or top-dose-only effect; inactive = no such curve, though single readings can be large or run the other way. This is one part of the list.

A short description of this experiment: Primary qHTS assay for Inhibitors of ovarian cancer metastasis using an organotypic tumor microenvironment (TME) model.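 For activity change, negative = inhibition: plate controls were DMSO wells for no effect and tomatine positive control wells for full effect.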 Note: nearly all actives have a fitted effect of over 65% in size. Conditions: SKOV3ip1-GFP adhesion/invasion on 3D omental model, fluorescence; series mostly up to 45.8 µM; activity change, negative = inhibition: at the top concentration. The procedure, abridged: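 qHTS, 4-pt dose (0.36-46 umol/L); SKOV3ip1-GFP, 1,200 cells/well, no FBS; primary omental fibroblast/mesothelial co-culture 48 h pre-grown; 2 h RT + 16 h 37 C; PBS wash, 4% PFA; GFP count 488/509 nm.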
(In general: qHTS replaces the single test concentration by a dilution series.)
For the molecule `Cc1ccc(N(C)S(=O)(=O)c2ccc(-c3cnc(C4CC4)o3)cc2)cc1`, the “activity change, negative = inhibition” value is inactive: -29.5%. `COc1ccc(Nc2nc(-c3ccccc3)c3cc(Br)ccc3n2)cc1`: the “activity change, negative = inhibition” value was inactive: 1.22%. The same measure, in the same setting: then `O=C(Cn1ncc2c3ccccc3n(Cc3ccc(F)cc3)c2c1=O)NC1CCCCCC1`, with inactive: 1.84%.

`CCOC(=O)c1cc(-c2ccccc2)n(-c2cccc(C(=O)NC(C)CC)c2)c1C` (stereo not drawn): the outcome was inactive.

Take `Cc1ccc(C)c(NC(=O)N2CCN(c3nnc(C)c4c(C)n(-c5ccccc5)nc34)CC2)c1`: the “activity change, negative = inhibition” value is inactive: -5.41%. Same read-out and setting: the same measure for `COc1cc2c(cc1OC)C(COc1ccccc1OC)N(C(=O)c1ccc(S(=O)(=O)N3CCCC3)cc1)CC2` (stereo not drawn): inactive: -24.7%. Consider `COc1ccc(C)cc1NC(=O)CN1CCCN(S(=O)(=O)c2ccc(Br)cc2)CC1`, for which the “activity change, negative = inhibition” value is inactive: 10.5%. On the same count and under the same terms, then `Cn1cc(C(=O)N2CCN(c3cccc(Cl)c3)CC2)c(=O)c2cc(S(=O)(=O)N3CCCC3)ccc21`, with inactive: -9.99%; and `CCOc1ccccc1NC(=O)c1c(NC(=O)Cc2ccccc2)sc2c1CCCC2`, with inactive: 1.09%; and `Cc1cc(C)c(S(=O)(=O)Nc2ccc(-c3ccc(N4CCCCC4)nn3)cc2)c(C)c1`, with inactive: 12.6%. Still for that read-out and setting: then `COc1ccc(N2CCN(C(=O)c3cn(C4CCCCC4)c(=O)c4c3c3ccccc3n4C)CC2)cc1`, with inactive: 3.8%. Same read-out and setting: the same measure for `COC(=O)c1cccc(Nc2c(-c3ccc(O)cc3)nc3nc[nH]n23)c1`: inactive: -15.2%; for `O=C(CCNS(=O)(=O)c1cccc2nonc12)Nc1ccc(F)cc1`: inactive: 10.7%. `COCCCNC(=O)CN1C(=O)COc2ccc(S(=O)(=O)N3CCOCC3)cc21`: the outcome was inactive. On to `COC(=O)c1cc(OC)c(OC)c(OC)c1NC(=O)c1cc(=O)n(C)c(=O)n1C`, for which the “activity change, negative = inhibition” value is inactive: -31.2%. Same read-out and setting: the same measure for `CCOc1ccc(NC(=O)CSc2ccc3ccccc3n2)cc1`: inactive: -14.2%; for `CCOC(=O)c1ccc(NC(=O)c2c(NCc3cccc(OC)c3)sc3c2CCC3)cc1`: inactive: -0.77%. Regarding `Cc1ccccc1Nc1cc(C(=O)NC2CCC(C)CC2)c2ccccc2n1` (stereo not drawn), the “activity change, negative = inhibition” value is inactive: 3.23%. The same measure, in the same setting: the same measure for `O=C(Nc1ccc(F)cc1F)c1cc2ccc3cccnc3c2[nH]1`: inactive: -27.2%; for `Cc1cccc(C)c1NC(=O)N1CCC(C(N)=O)(N2CCCCC2)CC1`: inactive: 1.85%.

With `COc1ccc2oc(-c3ccc(C)c(NC(=O)c4sc5ccccc5c4Cl)c3)nc2c1`, the result was inactive.

In the case of `COc1cccc(C(=O)NCC(c2ccc(N(C)C)cc2)N2CCc3ccccc32)c1OC` (stereo not drawn), the “activity change, negative = inhibition” value was inactive: -9.92%. For the molecule `Cn1cc(S(=O)(=O)N2CCCCCC2)cc1C(=O)Nc1ccccc1F`, the molecule was classed as inactive. In the case of `COc1ccc(-c2nc(Cn3c(SCc4cccc(F)c4)nc4cccnc43)c(C)o2)cc1`, the “activity change, negative = inhibition” value is inactive: -2.05%.

Regarding `COc1cccc(-n2c(-c3ccco3)nc3c(cnn3-c3ccccc3C)c2=O)c1`, the molecule was classed as inactive. Consider `CC(C)c1ccc(C(=O)Nc2ccc(-c3nc4ccccc4s3)c(Cl)c2)cc1`, for which the “activity change, negative = inhibition” value is inactive: 0.707%. As for `CCc1nc2ccccc2n1CCCCOc1ccc(Cl)cc1`, the “activity change, negative = inhibition” value is inactive: -1.76%.

Take `COc1cc(NC(=O)Cn2nc(Cc3cccnc3)c3ccccc3c2=O)cc(OC)c1OC`: the “activity change, negative = inhibition” value is inactive: -2.19%. On the same count and under the same terms, then `CCCCN(CCCC)S(=O)(=O)c1ccc(C(=O)Nc2sc3c(c2C(N)=O)CCN(CC)C3)cc1`, with inactive: 8.24%; and `CC(NCCc1ccc(O)cc1)C(O)c1ccc(O)cc1` (stereo not drawn), with inactive: 7.44%. Still for that read-out and setting: the same measure for `COc1ccc(N2CCN(c3oc(-c4ccccc4C)nc3S(=O)(=O)c3ccccc3)CC2)cc1`: inactive: -7.34%. Same read-out and setting: then `Cc1cccc(OCC(=O)Nc2c(C(=O)N3CCN(c4ccccc4)CC3)oc3ccccc23)c1`, with inactive: 5.11%; and `COc1ccccc1NC(=O)Cn1c(=O)n(CCc2ccccc2)c(=O)c2sc3ccccc3c21`, with inactive: -1.54%.

Consider `COc1cc(NC(=O)Cn2nc(C(F)(F)F)c3c2CCCC3)cc(OC)c1OC`, for which the molecule was classed as inactive. In the case of `CC1=C(C(=O)Nc2cccc(Cl)c2)C2(CCCCCC2)OC1=O`, the “activity change, negative = inhibition” value is inactive: -11.5%. Turning to `CCOc1ccccc1CNC(=O)CCCn1nc(C)c2sc3ccccc3c2c1=O`, the result was inactive. In the case of `Cc1ccc(OCc2ccc(-c3nc(C#N)c(N4CCN(c5cccc(Cl)c5)CC4)o3)o2)cc1`, the “activity change, negative = inhibition” value is inactive: -15.1%.

In the case of `O=C(Nc1ccc(-c2cn3cccnc3n2)cc1)c1ccccc1F`, the “activity change, negative = inhibition” value was inactive: -2.67%. With `Cc1cccc(CSc2nc3ccncc3n2Cc2ccc(C(=O)O)cc2)c1`, the molecule was called inactive. Turning to `CCCC12CN3CC(C)(CN(C1)C3c1cn(CC)c3ccccc13)C2=O` (stereo not drawn), the “activity change, negative = inhibition” value was inactive: 2.76%. Still for that read-out and setting: then `CN(C)c1ccc(CNC(=O)Cn2c(=O)oc3cc(S(=O)(=O)NCc4ccccc4)ccc32)cc1`, with inactive: 3.93%. Turning to `CCC1CN(C(=O)N2CCC(C(=O)NCCCc3ccccc3)CC2)c2ccccc2O1` (stereo not drawn), the molecule was classed as inactive. As for `COc1ccc(C(=O)Nc2cc3cc(Cl)ccc3oc2=O)cc1OC`, the “activity change, negative = inhibition” value was inactive: -16.2%. With `Cc1nn(CCC(=O)N2CCN(c3ccccc3F)CC2)c(C)c1S(=O)(=O)N1CCCC1`, the “activity change, negative = inhibition” value was inactive: 1.22%. With `COc1ccc(CNC(=O)c2ccc(CS(=O)(=O)c3ccc(OC)cc3)o2)cc1`, the molecule was classed as inactive.

For `O=C(NCc1ccccc1Cl)c1ccc2nc(Cc3ccccc3)oc2c1`, the “activity change, negative = inhibition” value is inactive: 7.65%.

Take `CC(=O)N1CCCc2cc(S(=O)(=O)N3CCC(C(=O)NCc4ccccc4Cl)CC3)ccc21`: the “activity change, negative = inhibition” value is inactive: 6.17%. The same measure, in the same setting: the same measure for `CCC(=O)N1c2ccccc2CC1C(=O)NCCN1CCN(c2cccc(Cl)c2)CC1` (stereo not drawn): inactive: 3.62%.
